Measured values published in the supplement of paper PMC3334620.
The full ranking holds about 33,000 sequences; the median of “E-score (-0.5 to 0.5)” is about -0.035, and the highest 2% start at about 0.35. Some of the results follow.

The sequences below were run against T1, Pdr3 (UniProt P33200) (assay: PBM E-score (8-mer binding enrichment) (E-score (-0.5 to 0.5)); higher = stronger / more preferred TF binding; most listed sequences are background and not binding sites). Conditions: protein concentration: 200 nM; construct: GST-full length.
T1 sequence: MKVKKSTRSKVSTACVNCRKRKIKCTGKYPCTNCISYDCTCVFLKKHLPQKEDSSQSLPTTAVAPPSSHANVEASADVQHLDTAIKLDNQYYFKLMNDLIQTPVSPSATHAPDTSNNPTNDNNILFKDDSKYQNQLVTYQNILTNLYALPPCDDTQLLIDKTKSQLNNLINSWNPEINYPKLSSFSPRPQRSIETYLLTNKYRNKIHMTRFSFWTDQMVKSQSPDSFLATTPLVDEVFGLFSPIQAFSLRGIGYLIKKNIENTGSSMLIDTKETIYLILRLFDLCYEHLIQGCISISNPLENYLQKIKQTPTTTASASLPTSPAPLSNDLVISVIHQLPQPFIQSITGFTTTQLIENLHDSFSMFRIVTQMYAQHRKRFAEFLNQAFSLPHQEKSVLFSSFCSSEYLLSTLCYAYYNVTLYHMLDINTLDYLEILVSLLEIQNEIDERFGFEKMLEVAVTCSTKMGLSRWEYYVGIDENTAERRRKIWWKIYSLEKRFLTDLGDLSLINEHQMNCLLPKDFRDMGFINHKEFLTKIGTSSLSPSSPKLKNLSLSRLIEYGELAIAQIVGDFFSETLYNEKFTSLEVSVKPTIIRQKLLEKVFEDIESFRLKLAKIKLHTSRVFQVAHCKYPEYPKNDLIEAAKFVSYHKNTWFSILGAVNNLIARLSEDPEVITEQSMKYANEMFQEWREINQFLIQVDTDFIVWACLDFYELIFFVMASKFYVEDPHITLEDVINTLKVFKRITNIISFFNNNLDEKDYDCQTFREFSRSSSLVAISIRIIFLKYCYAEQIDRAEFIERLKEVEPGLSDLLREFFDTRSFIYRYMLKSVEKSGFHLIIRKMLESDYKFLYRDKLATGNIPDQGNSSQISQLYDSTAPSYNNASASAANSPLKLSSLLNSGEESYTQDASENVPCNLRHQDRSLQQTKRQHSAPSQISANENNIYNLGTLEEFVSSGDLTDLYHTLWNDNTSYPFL
Summary of the method: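 Each ungapped eight-base word and its reverse complement, pooled, received an E-score from the Universal PBM Analysis Suite. Underlying scans, normalised with masliner, recorded fluorescent anti-GST bound to GST-tagged yeast transcription factors. These were applied at about 100-200 nM to universal all-10-mer Agilent arrays double-stranded by primer extension.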

Sequence	PBM E-score
GATCACTA	0.131
ATGGGTAC	-0.299
TAAAGCGA	0.0497
AACCATCT	-0.104
AGTTTAGG	-0.276
CACGATGC	-0.146
GAGCGGTA	0.0552
CTTCGTCC	-0.0469
ACAAAAGA	0.0611
CGGGTTGA	0.24
CCTGGAAA	0.0224
AAACGGCC	0.278
GTTCCCTA	-0.0497
ACTACGAA	-0.277
GCTACCTA	-0.0722
GTGATGCA	0.11
GTGGAGAA	-0.11
TACGCGTA	-0.0695
CCTTCGCA	-0.186
CCGGGGTC	0.327
ATCAAGGC	-0.104
ATGGCTGG	-0.105
ACATCCGT	0.216
CTCAGCAC	-0.0211
CACCAGCA	-0.2

Sequence	PBM E-score
ACGCAACA	-0.035
GATCACCA	0.0615
AGTGGCTC	-0.0868
CATCTGTA	-0.113
AAGAACTA	0.00668
AGGTACAG	-0.293
CACCAACA	-0.102
TCGAGTCA	-0.262
GATATTGA	0.117
TAGAAACA	-0.208
GAATTTAA	0.0296
GTCGCCAA	-0.138
TCACAACA	-0.157
ATCGCAGC	0.0141
GCTGTAAA	-0.32
ATACACAA	-0.147
AAACGGGG	0.186
CCGGCAGC	0.362
AGGCTCCG	0.306
CTACGCAG	-0.191
CGTCTGGC	0.146
AGGAAGGA	-0.363
AACCCTTA	-0.163
TACAGCAA	-0.0335
CGGGTTCC	0.414

Sequence	PBM E-score
AACTGAAC	0.0379
CCAGCTGA	-0.0391
CATAAAAC	0.0178
GGGGGAGA	-0.00585
ATTCGACA	-0.133
AGCCGCGG	0.485
AGGACGGC	-0.0743
GCTAGGCA	-0.0802
ACACCTTC	0.0728
CCGCCTGC	-0.041
CCACTCAA	-0.065
ATATGACA	0.0428
CTACCACA	-0.169
CATGGCGA	0.0227
ATGTTGGG	-0.0398
CGCCTTGC	-0.0202
TGACGTAA	-0.259
AGGATTTG	-0.138
CTCGTCAG	-0.152
CCGCTCTC	-0.0273
ACATGCCA	-0.0535
AATAATTC	0.172
ATCCCTGC	-0.0253
ACCCAGAA	0.00286
AAATTAGG	0.116

Sequence	PBM E-score
AGGACTAC	-0.244
AAGAGTCC	-0.0543
ATTTAGGA	-0.229
CAGGCACC	-0.221
GCCTCTGA	-0.223
ATAATGAA	0.00788
AGGAGATA	-0.182
GGGCCGTA	0.0929
ACGCGGAG	0.309
CGGTCCCC	0.0888
GACCAGAC	-0.247
ATAGCAGG	0.112
AACTCAGG	-0.175
CGCTGTAG	-0.00377
CGTCTTAG	-0.255
CTAGCCCA	-0.0911
AGTTCAGA	-0.0363
CGCTCACA	-0.072
AGGACCTG	-0.155
ATCAGCTA	-0.105
AGGATGTC	0.0246
GAAACATA	0.137
CGATGACA	0.0038
CTGGCGGA	0.131
GCGCACTA	0.101

Sequence	PBM E-score
GCGCGCCC	0.182
AAGTGAAA	-0.00211
CTACAACA	-0.177
ACTATTGC	0.0102
ATAGACGA	-0.122
CCATGAAG	-0.0463
CCGCTCAC	0.0879
ACGTTGGG	-0.226
ATCCTGCC	-0.0489
GCTTACAC	-0.159
GGAACAAC	0.302
TCAGGAGA	-0.114
CCGTAACG	-0.00149
GAGGGAAC	0.134
GAGGTAAA	-0.0806
ACGGTATA	0.0842
GGAGAGCC	-0.105
AACGTGTC	0.00256
GTGCGGCA	0.0901
ACAATAGC	-0.223
CCGTCTGA	0.0542
CCGTTTGA	0.116
ACTTAAGA	0.0238
ACTTCGTC	0.108
AGTTCCGA	0.456

Sequence	PBM E-score
GCATTTGA	0.0456
ACGGGGTA	0.0571
CCGACTTC	-0.0387
TGCATAAA	-0.00866
GGTTGTCA	-0.0131
AGGACCTC	0.0211
AAGACTCT	-0.182
GAAACGTA	0.0307
CCGAGGAC	0.169
GAACAGCA	-0.057
ACAGTCGT	-0.222
GTGGCGAA	0.106
ATGACAAC	0.0892
AAGCGACT	-0.246
GCTCAACA	-0.118
AAAATTCC	0.282
CACGAAGC	-0.13
ACTTGCCT	-0.0442
GTTTCCCA	0.0393
GATGCGAC	0.161
CGCGGCAC	0.385
GCAAACCC	-0.0541
GTAAGGGA	-0.0255
AAACGGGT	0.15
CTTAATCA	0.0785

Sequence	PBM E-score
AACGTTGC	-0.032
AGCAGCGA	0.0434
ACGACATA	-0.231
CTAGGACA	-0.0782
ACAATACT	0.015
AAGCTTCA	0.0605
CCTATAGG	0.0201
CACCGCCC	0.0947
CTTGCTGA	-0.166
CGAGTGTA	-0.0666
CGCGAGTC	-0.0192
ACACGGAT	0.302
ATAAGCCA	-0.271
ACAGGTGG	-0.155
CGCCCACA	0.0211
AGCGTTCG	-0.0672
ATAGGGCG	0.0728
AGAGCTGC	-0.14
AGTATAGC	-0.13
GATAATCC	0.189
AAGGTAGC	-0.271
CCTGCACG	-0.0585
